The full ranking holds about 33,000 sequences; the median of “E-score (-0.5 to 0.5)” is about -0.043, and the highest 2% start at about 0.37. The list shows a part of the results.
target: T1, Upc2 (UniProt Q12151); assay: PBM E-score (8-mer binding enrichment) (E-score (-0.5 to 0.5)); higher = stronger / more preferred TF binding; most listed sequences are background and not binding sites; details: protein concentration: 200 nM; construct: GST-full length
T1 sequence: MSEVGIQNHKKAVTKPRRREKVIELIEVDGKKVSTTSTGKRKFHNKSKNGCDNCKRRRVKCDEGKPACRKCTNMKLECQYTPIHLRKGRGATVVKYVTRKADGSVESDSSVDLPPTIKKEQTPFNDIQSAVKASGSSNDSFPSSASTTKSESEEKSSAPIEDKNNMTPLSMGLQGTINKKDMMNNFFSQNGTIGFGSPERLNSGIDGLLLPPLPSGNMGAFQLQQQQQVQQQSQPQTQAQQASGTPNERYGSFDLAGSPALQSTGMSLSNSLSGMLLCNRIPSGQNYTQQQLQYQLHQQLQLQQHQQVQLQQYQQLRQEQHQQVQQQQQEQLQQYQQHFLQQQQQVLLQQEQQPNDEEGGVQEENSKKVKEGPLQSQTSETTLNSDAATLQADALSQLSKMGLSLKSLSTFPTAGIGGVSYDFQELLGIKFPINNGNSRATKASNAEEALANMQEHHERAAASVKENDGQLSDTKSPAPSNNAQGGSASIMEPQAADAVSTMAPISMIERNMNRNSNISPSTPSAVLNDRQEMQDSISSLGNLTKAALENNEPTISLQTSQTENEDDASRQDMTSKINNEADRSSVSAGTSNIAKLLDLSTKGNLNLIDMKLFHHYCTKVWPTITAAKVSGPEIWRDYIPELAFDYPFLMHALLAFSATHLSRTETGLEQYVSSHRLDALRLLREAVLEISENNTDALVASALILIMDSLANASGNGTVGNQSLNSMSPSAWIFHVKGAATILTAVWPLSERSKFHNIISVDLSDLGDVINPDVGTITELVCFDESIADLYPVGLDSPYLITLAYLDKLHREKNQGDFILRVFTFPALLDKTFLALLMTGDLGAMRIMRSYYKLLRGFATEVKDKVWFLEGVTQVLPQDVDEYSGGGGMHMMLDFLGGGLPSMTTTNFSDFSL
Protocol: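 Universal 'all 10-mer' protein binding microarrays (Agilent AMADID 015681) probed with GST-tagged S. cerevisiae TFs (full-length or DBD) made by in vitro transcription/translation (PURExpress), about 100-200 nM. Bound TF was detected with fluorescent anti-GST. Each ungapped 8-mer (which stands for itself and its reverse complement) is scored by the PBM enrichment score (E-score), a modified Wilcoxon-Mann-Whitney statistic from -0.5 to +0.5, computed with the Universal PBM Analysis Suite. Scale: above 0.35 generally sequence-specific binding.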

Row | Sequence | PBM E-score
1 | CACTGCGA | 0.0515
2 | ACGTGCTA | 0.207
3 | CTTCTCAA | -0.0755
4 | GTAATGAC | 0.109
5 | GTTTTACA | -0.0312
6 | CTCTATTC | 0.052
7 | ATCCACGC | -0.113
8 | GCATCGGC | -0.141
9 | GGCGGAGA | -0.105
10 | GTCTAAGA | -0.0199
11 | GTAGGTTA | 0.0545
12 | CTGGGTTC | 0.0149
13 | AGGAGACA | -0.0517
14 | GTAAGAGA | 0.169
15 | ACCTTTAT | -0.172
16 | GCGTACCC | 0.244
17 | CAATTCGC | 0.11
18 | ACGCATCA | 0.0527
19 | CAGTTGAA | -0.171
20 | ACTGTAAC | 0.0684
21 | AAGTAGCG | -0.116
22 | CGGTCAAG | 0.012
23 | GGCCCCGA | -0.113
24 | GAACCAGA | -0.125
25 | AGATAGAG | -0.0701

Row | Sequence | PBM E-score
26 | CAAGTTCC | -0.101
27 | TGTTTGAA | -0.0139
28 | AGAATTCG | -0.0112
29 | GGGGGTCA | -0.234
30 | ACGTGGTG | 0.0484
31 | AGTTTTAC | 0.228
32 | CTTGACCA | -0.331
33 | CGCGTTGC | 0.0892
34 | ATGGCACC | -0.113
35 | CGGGTGCC | -0.134
36 | AAAAAGAT | -0.0855
37 | CTCCCCGC | 0.0534
38 | AGGAAGTA | -0.191
39 | AACATGCG | 0.108
40 | CCTAACGA | 0.274
41 | GTTCCGTA | 0.357
42 | ACTAGAAG | -0.291
43 | AGGATGCG | 0.134
44 | CGGCTAAA | 0.132
45 | GACGCGTC | 0.0619
46 | AAACACTA | 0.0978
47 | GTATACCA | 0.191
48 | AAAAGGGA | -0.2
49 | CCCCGAGG | -0.22
50 | CGGTTAGA | 0.271

Row | Sequence | PBM E-score
51 | AACGCCCG | 0.0967
52 | CATGAAGC | -0.201
53 | ACATTGCA | -0.0401
54 | ACGTTCTG | 0.106
55 | ATCCGCAT | 0.0894
56 | CTAGAACC | -0.0215
57 | GGGCCGAA | -0.135
58 | AAACTTGT | 0.118
59 | CGATCTCA | -0.111
60 | GGCTCCAC | -0.29
61 | GCGAGGAA | 0.155
62 | TATGTTGA | 0.0157
63 | CCAGGACA | -0.262
64 | GACGTCCA | -0.163
65 | GATGGTCC | -0.143
66 | ACGCAATA | 0.185
67 | GCTCGAAC | 0.0884
68 | AGTCAAGG | -0.208
69 | ACACTTAC | 0.0914
70 | GTCCAAAC | -0.065
71 | AACAGAGG | -0.266
72 | ACTCACAC | -0.1
73 | ATAAAGCG | 0.205
74 | AGTTCGCG | 0.0516
75 | AAGCAACA | -0.21

Row | Sequence | PBM E-score
76 | CAGGGTGC | -0.287
77 | CCGTCCGC | -0.19
78 | GATGAGAA | -0.0646
79 | GTACCATA | 0.15
80 | AGAGGTTG | -0.254
81 | AAATAGAC | -0.00717
82 | CGTACGTC | 0.338
83 | AAAACCGT | 0.0566
84 | AATCGGAA | -0.05
85 | AGCTTCCT | 0.00311
86 | GGGGAGGA | -0.196
87 | CTTCTACA | -0.0885
88 | CGCCAACA | -0.147
89 | CTTGTAAA | 0.0742
90 | GCAGGGAA | -0.0974
91 | AGGACCCG | -0.17
92 | ATTTCGTG | 0.0688
93 | GAACCTTA | -0.0824
94 | AGTAATGG | 0.00713
95 | ATGGTTGG | -0.0863
96 | GGGTTCAC | -0.0173
97 | ATGCTGTA | 0.097
98 | GAGTATCC | -0.0664
99 | CATAGACC | -0.014
100 | GGGATCTA | -0.117

Row | Sequence | PBM E-score
101 | CTAACAGC | -0.0732
102 | TCGTCCCA | -0.114
103 | ATAGCCGA | -0.0218
104 | AACGCAGT | 0.196
105 | ATTTGTAA | -0.102
106 | CAGCCCTA | -0.15
107 | AATATATA | 0.134
108 | ACCACCAA | -0.239
109 | ATGTGAAA | -0.0856
110 | CTCAGTGA | -0.234
111 | AAGTGCTC | -0.223
112 | GCTGTAGA | -0.289
113 | ACAATTCT | -0.0471
114 | ATGATCAG | -0.0343
115 | GAGTATCA | 0.0308
116 | TCGCATCA | 0.209
117 | CAGTAGTA | 0.0376
118 | AATTGTAA | -0.0647
119 | ACAGGGAA | -0.189
120 | AGCCCAGC | 0.0669
121 | TGTTACAA | 0.0136
122 | GTACTCGA | 0.0705
123 | GAGATCTA | -0.00428
124 | CATATGAA | -0.0314
125 | AGCTAATC | -0.0679

Row | Sequence | PBM E-score
126 | TAGCCAGA | -0.0491
127 | GTCCACGA | -0.19
128 | GGAGCTAC | -0.102
129 | ACGCTCGC | 0.239
130 | AGAGTCTG | -0.115
131 | AGGAACGG | 0.322
132 | CTTAAAGA | 0.0545
133 | CATAACAG | -0.138
134 | GCCCACCA | -0.15
135 | CCCAAGCG | -0.031
136 | AACTTGTA | 0.0148
137 | ATTAACAC | 0.00944
138 | CTTTGGTA | -0.298
139 | ACCATAAA | 0.0955
140 | CCCAATAC | -0.0628
141 | ATTTACCC | -0.0274
142 | GGAGTGTA | 0.0865
143 | GAGTGTCA | -0.164
144 | AGAGTGCA | -0.0398
145 | TAGACGAA | 0.197
146 | AAGAACCC | 0.0495
147 | CGAGCGTA | 0.29
148 | CATAGCTC | -0.15
149 | ACAGTGGA | -0.143
150 | CAGGGTCC | -0.157

Row | Sequence | PBM E-score
151 | CAGATTAC | -0.159
152 | ACGATGTA | 0.294
153 | CGATGATA | 0.147
154 | GAATTTGA | -0.0533
155 | TAAGACTA | -0.0702
156 | GAGAATCC | -0.0348
157 | CTTAATAC | 0.0648
158 | ACCTCTCC | -0.078
159 | AAAGATCG | 0.126
160 | CGTCTCAG | -0.0894
161 | AACTCGAG | -0.0678
162 | GAAGGGAA | -0.278
163 | GTGATAAA | 0.0437
164 | GCGTCCAA | -0.147
165 | TGGCGAAA | 0.0587
166 | TAGCACAA | -0.135
167 | CTTCAATA | -0.0591
168 | CAGGGAAG | -0.276
169 | CGGAGAAC | -0.0246
170 | TACGCTCA | 0.196
171 | AACGCATA | 0.198
172 | CTGTGTTC | 0.111
